# Results: the supplement of paper PMC8728848
# Some of the results follow.
# B1: Gal 7 (Homo sapiens) (protein)
# chain: MSNVPHKSSLPEGIRPGTVLRIRGLVPPNASRFHVNLLCGEEGGSDAALHFNPRLDTSEVVFNSKEGGSWGREERGPGVPFGRGQPFEVLIIASDDGFKAVVGDAQYHHFRHRLPLARVRLVEVGGDVQLDSVRIF
# What was measured:
# Experiment in all cases: glycan array binding signal (z-score within array); higher = stronger binding
# Conditions in all cases: glycan notation: IUPAC condensed, linker removed
# [1] = target: Gal(a1-4)Gal(b1-4)Gal
# Method in brief: (§1)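 The Consortium for Functional Glycomics database supplied 3228 glycan arrays, of which those lacking an available protein sequence were dropped. The binding signal, a within-array Z-score, was averaged across arrays of the same protein sequence and across linkers. Negative scores can be read as non-binding.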
# [2] = target: Gal(a1-4)Gal(b1-4)GalNAc
# Method in brief: as §1
# [3] = target: Gal(a1-4)Gal(b1-4)Glc
# Method in brief: as §1
# [4] = target: Gal(a1-4)Gal(b1-4)GlcNAc
# Method in brief: as §1
# [5] = target: Gal(a1-4)Gal(b1-4)GlcNAc(b1-2)Man(a1-3)[Gal(a1-4)Gal(b1-4)GlcNAc(b1-2)Man(a1-6)]Man(b1-4)GlcNAc(b1-4)GlcNAc
# Method in brief: as §1
# [6] = target: Gal(a1-4)Gal(b1-4)GlcNAc(b1-3)Gal(b1-4)Glc
# Method in brief: as §1
# [7] = target: Gal(a1-4)GlcNAc
# Method in brief: as §1
# [8] = target: Gal(a1-6)Glc
# Method in brief: as §1
# [9] = target: Gal(b1-2)Gal
# Method in brief: as §1
# [10] = target: Gal(b1-3)Gal
# Method in brief: as §1
# [11] = target: Gal(b1-3)Gal(b1-4)GlcNAc
# Method in brief: as §1
# [12] = target: Gal(b1-3)Gal(b1-4)GlcNAc(b1-2)Man(a1-3)[Gal(b1-3)Gal(b1-4)GlcNAc(b1-2)Man(a1-6)]Man(b1-4)GlcNAc(b1-4)GlcNAc
# Method in brief: as §1
# [13] = target: Gal(b1-3)GalNAc
# Method in brief: as §1
# [14] = target: Gal(b1-3)GalNAc(a1-3)[Fuc(a1-2)]Gal(b1-4)Glc
# Method in brief: as §1
# [15] = target: Gal(b1-3)GalNAc(a1-3)[Fuc(a1-2)]Gal(b1-4)GlcNAc
# Method in brief: as §1
# [16] = target: Gal(b1-3)GalNAc(b1-3)Gal
# Method in brief: as §1
# [17] = target: Gal(b1-3)GalNAc(b1-3)Gal(a1-4)Gal(b1-4)Glc
# Method in brief: as §1
# [18] = target: Gal(b1-3)GalNAc(b1-3)Gal(b1-4)Glc
# Method in brief: as §1
# [19] = target: Gal(b1-3)GalNAc(b1-3)Gal(b1-4)GlcNAc
# Method in brief: as §1
# [20] = target: Gal(b1-3)GalNAc(b1-4)Gal(b1-4)Glc
# Method in brief: as §1
# [21] = target: Gal(b1-3)GalNAc(b1-4)[Neu5Ac(a2-3)]Gal(b1-4)Glc
# Method in brief: as §1
# [22] = target: Gal(b1-3)GlcNAc
# Method in brief: as §1
# [23] = target: Gal(b1-3)GlcNAc(a1-3)Gal(b1-4)GlcNAc
# Method in brief: as §1
# [24] = target: Gal(b1-3)GlcNAc(a1-6)Gal(b1-4)GlcNAc
# Method in brief: as §1
# [25] = target: Gal(b1-3)GlcNAc(b1-2)Man
# Method in brief: as §1
# [26] = target: Gal(b1-3)GlcNAc(b1-2)Man(a1-3)[Gal(b1-3)GlcNAc(b1-2)Man(a1-6)]Man(b1-4)GlcNAc(b1-4)GlcNAc
# Method in brief: as §1
# [27] = target: Gal(b1-3)GlcNAc(b1-2)Man(a1-3)[Gal(b1-3)GlcNAc(b1-2)Man(a1-6)]Man(b1-4)GlcNAc(b1-4)[Fuc(a1-6)]GlcNAc
# Method in brief: as §1
# [28] = target: Gal(b1-3)GlcNAc(b1-2)Man(a1-3)[GlcNAc(b1-4)][Gal(b1-3)GlcNAc(b1-2)Man(a1-6)]Man(b1-4)GlcNAc(b1-4)GlcNAc
# Method in brief: as §1
# [29] = target: Gal(b1-3)GlcNAc(b1-2)[Gal(b1-3)GlcNAc(b1-6)]Man(a1-6)[Gal(b1-3)GlcNAc(b1-2)Man(a1-3)]Man(b1-4)GlcNAc(b1-4)GlcNAc
# Method in brief: as §1
# [30] = target: Gal(b1-3)GlcNAc(b1-3)Gal(b1-3)GlcNAc
# Method in brief: as §1
# [31] = target: Gal(b1-3)GlcNAc(b1-3)Gal(b1-4)Glc
# Method in brief: as §1
# [32] = target: Gal(b1-3)GlcNAc(b1-3)Gal(b1-4)GlcNAc
# Method in brief: as §1
# [33] = target: Gal(b1-3)GlcNAc(b1-3)Gal(b1-4)GlcNAc(b1-2)Man(a1-3)[Gal(b1-3)GlcNAc(b1-3)Gal(b1-4)GlcNAc(b1-2)Man(a1-6)]Man(b1-4)GlcNAc(b1-4)GlcNAc
# Method in brief: as §1
# [34] = target: Gal(b1-3)GlcNAc(b1-3)Gal(b1-4)GlcNAc(b1-2)[Gal(b1-3)GlcNAc(b1-3)Gal(b1-4)GlcNAc(b1-6)]Man(a1-6)[Gal(b1-3)GlcNAc(b1-3)Gal(b1-4)GlcNAc(b1-2)Man(a1-3)]Man(b1-4)GlcNAc(b1-4)[Fuc(a1-6)]GlcNAc
# Method in brief: as §1
# [35] = target: Gal(b1-3)GlcNAc(b1-3)Gal(b1-4)GlcNAc(b1-3)Gal(b1-4)GlcNAc(b1-2)[Gal(b1-3)GlcNAc(b1-3)Gal(b1-4)GlcNAc(b1-3)Gal(b1-4)GlcNAc(b1-6)]Man(a1-6)[Gal(b1-3)GlcNAc(b1-3)Gal(b1-4)GlcNAc(b1-3)Gal(b1-4)GlcNAc(b1-2)Man(a1-3)]Man(b1-4)GlcNAc(b1-4)[Fuc(a1-6)]GlcNAc
# Method in brief: as §1
# [36] = target: Gal(b1-3)GlcNAc(b1-3)Gal(b1-4)GlcNAc(b1-6)[Gal(b1-3)GlcNAc(b1-3)]Gal(b1-4)Glc
# Method in brief: as §1
# [37] = target: Gal(b1-3)GlcNAc(b1-3)Gal(b1-4)[Fuc(a1-3)]GlcNAc
# Method in brief: as §1
# [38] = target: Gal(b1-3)GlcNAc(b1-3)Gal(b1-4)[Fuc(a1-3)]GlcNAc(b1-6)[Gal(b1-3)GlcNAc(b1-3)]Gal(b1-4)Glc
# Method in brief: as §1
# [39] = target: Gal(b1-3)GlcNAc(b1-3)GalNAc
# Method in brief: as §1
# [40] = target: Gal(b1-3)GlcNAc(b1-6)Gal(b1-4)GlcNAc
# Method in brief: as §1
# [41] = target: Gal(b1-3)GlcNAc(b1-6)GalNAc
# Method in brief: as §1
# [42] = target: Gal(b1-3)GlcNAc(b1-6)[Gal(b1-3)]GalNAc
# Method in brief: as §1
# [43] = target: Gal(b1-3)GlcNAc6S
# Method in brief: as §1
# [44] = target: Gal(b1-3)[Fuc(a1-4)]GlcNAc
# Method in brief: as §1
# [45] = target: Gal(b1-3)[Fuc(a1-4)]GlcNAc(b1-2)Man
# Method in brief: as §1
binder,measurement,setting,value
B1,glycan array binding signal (z-score),[1],-0.366
same,glycan array binding signal (z-score),[2],-0.355
same,glycan array binding signal (z-score),[3],-0.185
same,glycan array binding signal (z-score),[4],-0.251
same,glycan array binding signal (z-score),[5],0.477
same,glycan array binding signal (z-score),[6],0.016
same,glycan array binding signal (z-score),[7],-0.289
same,glycan array binding signal (z-score),[8],-0.293
same,glycan array binding signal (z-score),[9],-0.316
same,glycan array binding signal (z-score),[10],-0.328
same,glycan array binding signal (z-score),[11],-0.341
same,glycan array binding signal (z-score),[12],0.71
same,glycan array binding signal (z-score),[13],-0.006
same,glycan array binding signal (z-score),[14],-0.188
same,glycan array binding signal (z-score),[15],-0.303
same,glycan array binding signal (z-score),[16],-0.119
same,glycan array binding signal (z-score),[17],-0.224
same,glycan array binding signal (z-score),[18],1.38
same,glycan array binding signal (z-score),[19],0.962
same,glycan array binding signal (z-score),[20],-0.308
same,glycan array binding signal (z-score),[21],-0.318
same,glycan array binding signal (z-score),[22],-0.304
same,glycan array binding signal (z-score),[23],-0.126
same,glycan array binding signal (z-score),[24],-0.327
same,glycan array binding signal (z-score),[25],-0.229
same,glycan array binding signal (z-score),[26],-0.047
same,glycan array binding signal (z-score),[27],0.027
same,glycan array binding signal (z-score),[28],0.217
same,glycan array binding signal (z-score),[29],0.045
same,glycan array binding signal (z-score),[30],0.415
same,glycan array binding signal (z-score),[31],-0.166
same,glycan array binding signal (z-score),[32],-0.193
same,glycan array binding signal (z-score),[33],-0.199
same,glycan array binding signal (z-score),[34],0.02
same,glycan array binding signal (z-score),[35],0.186
same,glycan array binding signal (z-score),[36],-0.216
same,glycan array binding signal (z-score),[37],-0.245
same,glycan array binding signal (z-score),[38],-0.256
same,glycan array binding signal (z-score),[39],0.04
same,glycan array binding signal (z-score),[40],-0.33
same,glycan array binding signal (z-score),[41],-0.164
same,glycan array binding signal (z-score),[42],-0.261
same,glycan array binding signal (z-score),[43],-0.108
same,glycan array binding signal (z-score),[44],-0.24
same,glycan array binding signal (z-score),[45],-0.213
